Results from the supplement of paper PMC8728848.
The other results are listed elsewhere or left out.

How the values were obtained:
Experiment in all cases: glycan array binding signal (z-score within array); higher = stronger binding
Details in all cases: glycan notation: IUPAC condensed, linker removed
[1] = target: Neu5Ac(a2-3)Gal6S(b1-4)[Fuc(a1-3)]GlcNAc
How it was run: (§1)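 The Consortium for Functional Glycomics database supplied 3228 glycan arrays, of which those lacking an available protein sequence were dropped. The binding signal, a within-array Z-score, was averaged across arrays of the same protein sequence and across linkers. Negative scores can be read as non-binding.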

Neu5Ac(a2-3)GalNAc = target: Neu5Ac(a2-3)GalNAc
How it was run: as §1

[2] = target: Neu5Ac(a2-3)GalNAc(b1-4)GlcNAc
How it was run: as §1

[3] = target: Neu5Ac(a2-3)[GalNAc(b1-4)]Gal(b1-4)Glc
How it was run: as §1

[4] = target: Neu5Ac(a2-3)[GalNAc(b1-4)]Gal(b1-4)GlcNAc
How it was run: as §1

[5] = target: Neu5Ac(a2-3)[GalNAc(b1-4)]Gal(b1-4)GlcNAc(b1-3)GalNAc
How it was run: as §1

[6] = target: Neu5Ac(a2-3)[Neu5Ac(a2-6)]GalNAc
How it was run: as §1

Neu5Ac(a2-6)Gal = target: Neu5Ac(a2-6)Gal
How it was run: as §1

[7] = target: Neu5Ac(a2-6)Gal(b1-3)GlcNAc(b1-3)[Gal(b1-4)GlcNAc(b1-6)]Gal(b1-4)Glc
How it was run: as §1

Neu5Ac(a2-6)Gal(b1-4)Glc = target: Neu5Ac(a2-6)Gal(b1-4)Glc
How it was run: as §1

[8] = target: Neu5Ac(a2-6)Gal(b1-4)GlcNAc
How it was run: as §1

[9] = target: Neu5Ac(a2-6)Gal(b1-4)GlcNAc(b1-2)Man
How it was run: as §1

[10] = target: Neu5Ac(a2-6)Gal(b1-4)GlcNAc(b1-2)Man(a1-3)Man(b1-4)GlcNAc(b1-4)GlcNAc
How it was run: as §1

[11] = target: Neu5Ac(a2-6)Gal(b1-4)GlcNAc(b1-2)Man(a1-3)[Gal(b1-4)GlcNAc(b1-2)Man(a1-6)]Man(b1-4)GlcNAc(b1-4)GlcNAc
How it was run: as §1

[12] = target: Neu5Ac(a2-6)Gal(b1-4)GlcNAc(b1-2)Man(a1-3)[GlcNAc(b1-2)Man(a1-6)]Man(b1-4)GlcNAc(b1-4)GlcNAc
How it was run: as §1

[13] = target: Neu5Ac(a2-6)Gal(b1-4)GlcNAc(b1-2)Man(a1-3)[GlcNAc(b1-4)][Neu5Ac(a2-6)Gal(b1-4)GlcNAc(b1-2)Man(a1-6)]Man(b1-4)GlcNAc(b1-4)GlcNAc
How it was run: as §1

[14] = target: Neu5Ac(a2-6)Gal(b1-4)GlcNAc(b1-2)Man(a1-3)[Man(a1-6)]Man(b1-4)GlcNAc(b1-4)GlcNAc
How it was run: as §1

[15] = target: Neu5Ac(a2-6)Gal(b1-4)GlcNAc(b1-2)Man(a1-3)[Neu5Ac(a2-3)Gal(b1-4)GlcNAc(b1-2)Man(a1-6)]Man(b1-4)GlcNAc(b1-4)GlcNAc
How it was run: as §1

[16] = target: Neu5Ac(a2-6)Gal(b1-4)GlcNAc(b1-2)Man(a1-3)[Neu5Ac(a2-6)Gal(b1-4)GlcNAc(b1-2)Man(a1-6)]Man(b1-4)GlcNAc(b1-4)GlcNAc
How it was run: as §1

[17] = target: Neu5Ac(a2-6)Gal(b1-4)GlcNAc(b1-2)Man(a1-3)[Neu5Ac(a2-6)Gal(b1-4)GlcNAc(b1-2)Man(a1-6)]Man(b1-4)GlcNAc(b1-4)[Fuc(a1-6)]GlcNAc
How it was run: as §1

[18] = target: Neu5Ac(a2-6)Gal(b1-4)GlcNAc(b1-2)Man(a1-6)Man(b1-4)GlcNAc(b1-4)GlcNAc
How it was run: as §1

[19] = target: Neu5Ac(a2-6)Gal(b1-4)GlcNAc(b1-2)Man(a1-6)[Gal(b1-4)GlcNAc(b1-2)Man(a1-3)]Man(b1-4)GlcNAc(b1-4)GlcNAc
How it was run: as §1

[20] = target: Neu5Ac(a2-6)Gal(b1-4)GlcNAc(b1-2)Man(a1-6)[GlcNAc(b1-2)Man(a1-3)]Man(b1-4)GlcNAc(b1-4)GlcNAc
How it was run: as §1

[21] = target: Neu5Ac(a2-6)Gal(b1-4)GlcNAc(b1-2)Man(a1-6)[Man(a1-3)]Man(b1-4)GlcNAc(b1-4)GlcNAc
How it was run: as §1

[22] = target: Neu5Ac(a2-6)Gal(b1-4)GlcNAc(b1-2)[Neu5Ac(a2-6)Gal(b1-4)GlcNAc(b1-4)]Man(a1-3)[GlcNAc(b1-4)][Neu5Ac(a2-6)Gal(b1-4)GlcNAc(b1-2)[Neu5Ac(a2-6)Gal(b1-4)GlcNAc(b1-6)]Man(a1-6)]Man(b1-4)GlcNAc(b1-4)GlcNAc
How it was run: as §1

[23] = target: Neu5Ac(a2-6)Gal(b1-4)GlcNAc(b1-2)[Neu5Ac(a2-6)Gal(b1-4)GlcNAc(b1-4)]Man(a1-3)[GlcNAc(b1-4)][Neu5Ac(a2-6)Gal(b1-4)GlcNAc(b1-4)Man(a1-6)]Man(b1-4)GlcNAc(b1-4)GlcNAc
How it was run: as §1

[24] = target: Neu5Ac(a2-6)Gal(b1-4)GlcNAc(b1-2)[Neu5Ac(a2-6)Gal(b1-4)GlcNAc(b1-6)]Man(a1-6)[Neu5Ac(a2-6)Gal(b1-4)GlcNAc(b1-2)Man(a1-3)][GlcNAc(b1-4)]Man(b1-4)GlcNAc(b1-4)GlcNAc
How it was run: as §1

[25] = target: Neu5Ac(a2-6)Gal(b1-4)GlcNAc(b1-3)Gal(b1-3)GlcNAc
How it was run: as §1

[26] = target: Neu5Ac(a2-6)Gal(b1-4)GlcNAc(b1-3)Gal(b1-4)GlcNAc
How it was run: as §1

[27] = target: Neu5Ac(a2-6)Gal(b1-4)GlcNAc(b1-3)Gal(b1-4)GlcNAc(b1-2)Man(a1-3)[Neu5Ac(a2-6)Gal(b1-4)GlcNAc(b1-3)Gal(b1-4)GlcNAc(b1-2)Man(a1-6)]GalNAc
How it was run: as §1

[28] = target: Neu5Ac(a2-6)Gal(b1-4)GlcNAc(b1-3)Gal(b1-4)GlcNAc(b1-3)Gal(b1-4)GlcNAc
How it was run: as §1

[29] = target: Neu5Ac(a2-6)Gal(b1-4)GlcNAc(b1-3)Gal(b1-4)GlcNAc(b1-3)Gal(b1-4)GlcNAc(b1-2)Man(a1-3)[Neu5Ac(a2-6)Gal(b1-4)GlcNAc(b1-3)Gal(b1-4)GlcNAc(b1-3)Gal(b1-4)GlcNAc(b1-2)Man(a1-6)]GalNAc
How it was run: as §1

[30] = target: Neu5Ac(a2-6)Gal(b1-4)GlcNAc(b1-3)Gal(b1-4)GlcNAc(b1-3)GalNAc
How it was run: as §1

[31] = target: Neu5Ac(a2-6)Gal(b1-4)GlcNAc(b1-3)Gal(b1-4)GlcNAc(b1-3)[Neu5Ac(a2-6)Gal(b1-4)GlcNAc(b1-3)Gal(b1-4)GlcNAc(b1-6)]GalNAc
How it was run: as §1

[32] = target: Neu5Ac(a2-6)Gal(b1-4)GlcNAc(b1-3)Gal(b1-4)GlcNAc(b1-6)[Gal(b1-3)]GalNAc
How it was run: as §1

[33] = target: Neu5Ac(a2-6)Gal(b1-4)GlcNAc(b1-3)Gal(b1-4)[Fuc(a1-3)]GlcNAc(b1-3)Gal(b1-4)[Fuc(a1-3)]GlcNAc
How it was run: as §1

[34] = target: Neu5Ac(a2-6)Gal(b1-4)GlcNAc(b1-3)GalNAc
How it was run: as §1

B1: DC-ASGPR L+GEE (Homo sapiens) (protein)
chain: MTRTYENFQYLENKVKVQGFKNGPLPLQSLLQRLRSGPCHLLLSLGLGLLLLVIICVVGFQNSKFQRDLVTLRTDFSNFTSNTVAEIQALTSQGSSLEETIASLKAEVEGFKQERQAGVSELQEHTTQKAHLGHCPHCPSVCVPVHSEMLLRVQQLVQDLKKLTCQVATLNNNGEEASTEGTCCPVNWVEHQDSCYWFSHSGMSWAEAEKYCQLKNAHLVVINSREEQNFVQKYLGSAYTWMGLSDPEGAWKWVDGTDYATGFQNWKPGQPDDWQGHGLGGGEDCAHFHPDGRWNDDVCQRPYHWVCEAGLGQTSQESH
glycan array binding signal (z-score) [1]: -0.509
glycan array binding signal (z-score) (Neu5Ac(a2-3)GalNAc): -0.223
glycan array binding signal (z-score) [2]: -0.213
glycan array binding signal (z-score) [3]: 0.821
glycan array binding signal (z-score) [4]: 0.264
glycan array binding signal (z-score) [5]: 0.219
glycan array binding signal (z-score) [6]: 0.194
glycan array binding signal (z-score) (Neu5Ac(a2-6)Gal): -0.394
glycan array binding signal (z-score) [7]: -0.639
glycan array binding signal (z-score) (Neu5Ac(a2-6)Gal(b1-4)Glc): -0.594
glycan array binding signal (z-score) [8]: -0.57
glycan array binding signal (z-score) [9]: 0.432
glycan array binding signal (z-score) [10]: -0.012
glycan array binding signal (z-score) [11]: 0.004
glycan array binding signal (z-score) [12]: -0.362
glycan array binding signal (z-score) [13]: -0.178
glycan array binding signal (z-score) [14]: -0.127
glycan array binding signal (z-score) [15]: 0.898
glycan array binding signal (z-score) [16]: 0.009
glycan array binding signal (z-score) [17]: -0.327
glycan array binding signal (z-score) [18]: -0.255
glycan array binding signal (z-score) [19]: -0.447
glycan array binding signal (z-score) [20]: -0.328
glycan array binding signal (z-score) [21]: -0.21
glycan array binding signal (z-score) [22]: -0.396
glycan array binding signal (z-score) [23]: 0.835
glycan array binding signal (z-score) [24]: -0.563
glycan array binding signal (z-score) [25]: 0.079
glycan array binding signal (z-score) [26]: -0.842
glycan array binding signal (z-score) [27]: 0.155
glycan array binding signal (z-score) [28]: 0.635
glycan array binding signal (z-score) [29]: 0.947
glycan array binding signal (z-score) [30]: -0.923
glycan array binding signal (z-score) [31]: -0.018
glycan array binding signal (z-score) [32]: -0.83
glycan array binding signal (z-score) [33]: -0.108
glycan array binding signal (z-score) [34]: 0.583
